Test results: PubChem BioAssay AID488969 (Vanderbilt High Throughput Screening Facility, 2010)
Whole data set: some 110,000 compounds, median “z-score” near -0.1, cut for the highest 2% near 2. The list shows a part of the results. Activity calls are given as the source filed them.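 The calls were made as follows: active = z-score in the third read window above 3 or below -3; inactive = the rest.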

What follows are compounds tested against Metabotropic glutamate receptor 8 (Rattus norvegicus) (UniProt P70579) (assay: mGluR8 Gi/Go-coupled signaling modulation – cell-based, rat, thallium flux, HTS, primary screen (AID 488969)). Details: HEK293 rat mGluR8, GIRK (G protein-gated inwardly rectifying potassium channel) thallium flux, FluoZin2; at 10 µM; stronger effect = higher value; submaximal glutamate (EC20) added with thallium.
Chain of UniProt P70579 (P70579 whole entry, looked up): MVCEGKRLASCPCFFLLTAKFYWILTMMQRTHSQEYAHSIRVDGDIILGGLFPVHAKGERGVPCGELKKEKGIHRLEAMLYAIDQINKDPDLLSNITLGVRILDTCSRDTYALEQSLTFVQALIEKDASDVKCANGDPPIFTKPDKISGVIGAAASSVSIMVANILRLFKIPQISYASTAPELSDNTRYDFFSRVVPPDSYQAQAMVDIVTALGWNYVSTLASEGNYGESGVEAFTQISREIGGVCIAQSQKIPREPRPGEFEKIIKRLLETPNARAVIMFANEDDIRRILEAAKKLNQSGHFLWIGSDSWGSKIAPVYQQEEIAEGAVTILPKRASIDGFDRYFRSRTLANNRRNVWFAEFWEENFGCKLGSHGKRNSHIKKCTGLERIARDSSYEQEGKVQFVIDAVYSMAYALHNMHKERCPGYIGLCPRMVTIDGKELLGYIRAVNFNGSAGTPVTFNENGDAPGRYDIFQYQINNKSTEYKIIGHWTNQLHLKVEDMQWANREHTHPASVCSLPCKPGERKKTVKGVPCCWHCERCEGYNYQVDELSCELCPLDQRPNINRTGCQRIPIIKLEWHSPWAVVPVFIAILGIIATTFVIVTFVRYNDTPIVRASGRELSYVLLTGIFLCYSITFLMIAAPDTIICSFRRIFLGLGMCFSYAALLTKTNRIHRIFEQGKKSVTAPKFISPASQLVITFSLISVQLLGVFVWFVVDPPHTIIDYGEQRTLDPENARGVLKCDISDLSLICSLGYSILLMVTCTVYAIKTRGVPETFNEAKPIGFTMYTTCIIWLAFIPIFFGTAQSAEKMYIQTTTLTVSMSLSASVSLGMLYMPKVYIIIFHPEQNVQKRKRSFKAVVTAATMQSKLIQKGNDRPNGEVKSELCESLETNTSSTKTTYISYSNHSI

| SMILES | z-score |
| --- | --- |
| C/C(CC(=O)Nc1ccccc1C)=N\NC(=O)Cc1csc(N)n1 | -0.16 |
| COc1cccc(/C=N/NC(=O)c2cnccn2)c1 | 0.441 |
| CC(C)(C)c1cc(C(=O)O)nn1-c1ccccc1 | -0.0651 |
| S=c1[nH]nc(-c2ccc(Br)o2)n1Cc1ccccc1 | active: 3.42 |
| CN1C(=O)c2oc3ccccc3c(=O)c2C1c1ccccn1 (stereo unspecified) | active: 8.59 |
| CCN(CC)CCCn1c(=S)[nH]c2cc(OC)c(OC)cc2c1=O | -0.0622 |
| COC(=O)c1c(NC(=O)/C=C/c2ccco2)sc2c1CCC2 | 0.997 |
| Cc1nnc(SCC(=O)Nc2ccc3c(c2)OCCO3)n1CC1CCCO1 (stereo unspecified) | -0.241 |
| Cc1ccc(-c2nnc3ccc(SCC(=O)N4CCCc5ccccc54)nn23)cc1 | -1.25 |
| CC1CN(c2ncnc3c2oc2ccccc23)CC(C)O1 (stereo unspecified) | -0.819 |
| CCOC(=O)c1cc2c(=O)n3ccccc3nc2n(CCCOC)c1=NC(=O)C(C)(C)C | 0.0485 |
| Cc1ccc2c(c1)N(CCC(=O)NC(C)C)C(=O)CO2 | 0.439 |
| O=C(O)c1oc2ccccc2c1CSc1ccccn1 | active: -3.14 |
| COc1ccc(CC(=O)Nc2ccc(S(=O)(=O)Nc3cc(C)on3)cc2)cc1OC | -0.00554 |
| CCOc1cccc(OCCOCCOc2ccccc2C(C)=O)c1 | 0.0696 |
| Cc1cc(C)nc(SCC(=O)c2ccc([N+](=O)[O-])cc2)n1 | 0.0207 |
| COc1ccc(CCNC(=O)c2cnn3ccccc23)c(OC)c1OC | 0.0444 |
| COc1ccc(C(=O)Nc2ccc(CN3CCOCC3)cc2)cc1 | -0.31 |
| COc1ccc(-c2cnc(OC(C)(C)C)nc2OC(C)(C)C)cc1OC | -0.0419 |

| SMILES | z-score |
| --- | --- |
| COc1ccc(OC)c(NC(=O)c2nnn(CCc3ccccc3)c2N)c1 | -0.357 |
| Cn1cc(C(=O)N2CCN(c3ccccn3)CC2)c(=O)c2cc(S(=O)(=O)N3CCOCC3)ccc21 | -0.132 |
| Cc1cccc(C)c1NC(=O)c1ccc([N+](=O)[O-])s1 | -0.118 |
| CC1(C)NC(=O)N(CC(O)CN2C(=O)CCC2=O)C1=O (stereo unspecified) | -0.543 |
| CCn1c(CNC(=O)c2ccc(OC)c(OC)c2)nnc1SCC(=O)c1ccc(OC)cc1 | -0.228 |
| Cc1ccccc1Cn1nc(C)c(NC(=O)c2noc3c2CCCC3)c1C | -0.0577 |
| Cc1ccc(C(=O)Nc2c(-c3cccs3)c(=O)c3ccccc3n2C)cc1 | 0.325 |
| Cc1nnc(C)n1/N=C/c1cccn1C | 0.353 |
| c1ccc(CSc2nncn2-c2ccccn2)cc1 | -0.159 |
| COc1c(Cl)cc(Cl)cc1/C=C/C(=O)c1ccc(NC(=O)c2cccs2)cc1 | -0.0704 |
| O=C(Nc1ccc2c(c1)OCCO2)c1ccc(Br)s1 | 0.348 |
| COCCn1c(C)cc(C(=O)CN2C(=O)NC3(CCCCCCC3)C2=O)c1C | 0.319 |
| CCC(=O)N1c2ccc(S(=O)(=O)CCC(=O)NCc3cccs3)cc2CC1C (stereo unspecified) | -0.317 |
| O=C(O)CCCNC(=O)c1cncc(Br)c1 | 1.28 |
| O=S(=O)(c1ccccc1)c1nc(-c2ccccc2)oc1N1CCCCC1 | -0.0433 |
| Cc1nn(Cc2ccc(Cl)cc2)c(C)c1NC(=O)CCCn1nc(C)c([N+](=O)[O-])c1C | -0.321 |
| O=C(Cn1c(=O)oc2cc(S(=O)(=O)N3CCOCC3)ccc21)N1CCc2ccccc2C1 | -0.376 |
| COc1ccc(-n2nc3c(c2NC(=O)C2CCCC2)CS(=O)C3)cc1 (stereo unspecified) | -0.284 |
| CC1(C)Cc2ccccc2-c2nnc(-c3ccco3)n21 | -1.09 |

| SMILES | z-score |
| --- | --- |
| CCOC(=O)C1=C(c2cccc(F)c2)NC(=S)NC1C (stereo unspecified) | -0.0733 |
| Cc1c(NC(=O)c2cccc(-c3cc4ccccc4oc3=O)c2)cccc1-c1nc2ncccc2o1 | -0.129 |
| Cc1ccc(-n2[nH]c(C)c(C=Nc3ccc(S(=O)(=O)Nc4nc(C)cc(C)n4)cc3)c2=O)c(C)c1 | -0.0925 |
| O=C(Nc1scc(-c2cccs2)c1C(=O)O)c1cccs1 | 1.01 |
| COc1ccc(C(=O)CN2C(=O)c3ccccc3C2=O)c(OC)c1C | -0.207 |
| CCCn1cnc2c(sc3nc4c(cc32)CSC(C)(C)C4)c1=O | -0.0716 |
| CCOC(=O)c1[nH]cnc1C(=O)Nc1ccccn1 | 0.109 |
| COC(=O)c1sccc1-n1cccc1C(=O)N1CCOCC1 | 0.0627 |
| O=C(/N=C1/c2ccccc2CN1c1ccccc1)Nc1ccccc1 | -0.236 |
| C=CCn1c(SCCCC)nc(O)cc1=O | -0.421 |
| NC(CSC12CC3CC(CC(C3)C1)C2)C(=O)O (stereo unspecified) | 0.309 |
| O=[N+]([O-])c1cc(F)c(N2CCOCC2)cc1N1CCCCC1 | -0.604 |
| Cc1cccc(NC(=O)Cn2c(/C=C/c3ccccc3)nc3ccccc32)c1 | -0.725 |
| CC1=CS/C(=C(/C#N)C(=O)N2CCOCC2)N1c1ccccc1 | 0.337 |
| CCc1ccc(-n2nnnc2SCC(=O)NNC(=O)c2ccco2)cc1 | 0.103 |
| CCOC(=O)CCCNC(=O)COC(=O)c1cc(C)cc(C)c1 | -0.00701 |
| COC(=O)c1ccccc1NC(=O)C1CCCN(S(C)(=O)=O)C1 (stereo unspecified) | 0.0683 |
| O=C(COC(=O)/C=C/c1ccccc1)Nc1cc(C(F)(F)F)ccc1N1CCOCC1 | -0.0626 |
